{"source": "PubChem BioAssay AID588591", "about": "(National Center for Advancing Translational Sciences (NCATS), 2011)", "note": "Hit rate of the full screen: of about 390,000 compounds, about 4,700 (1.2%) were called active. Inconclusive means that the source gave no clear call. Such entries were picked first, then a sample of the others. The call rests on the fitted dose curve; in most records, active means well fitted inhibition curve with a large enough effect; inconclusive means small, poorly fitted or top-dose-only effect, or another doubt; inactive means no such curve, though single readings can be large or run the other way. Potencies of inconclusive entries are doubtful fits and often do not repeat. On the % scale 0 is the no-effect control and ±100 the full control effect; potency means the concentration at half of the fitted maximal effect; tags describe the fitted curve by direction and shape."}
{"target": "DNA polymerase eta (Homo sapiens) (UniProt Q9Y253)", "sequence (Q9Y253 whole entry, looked up)": "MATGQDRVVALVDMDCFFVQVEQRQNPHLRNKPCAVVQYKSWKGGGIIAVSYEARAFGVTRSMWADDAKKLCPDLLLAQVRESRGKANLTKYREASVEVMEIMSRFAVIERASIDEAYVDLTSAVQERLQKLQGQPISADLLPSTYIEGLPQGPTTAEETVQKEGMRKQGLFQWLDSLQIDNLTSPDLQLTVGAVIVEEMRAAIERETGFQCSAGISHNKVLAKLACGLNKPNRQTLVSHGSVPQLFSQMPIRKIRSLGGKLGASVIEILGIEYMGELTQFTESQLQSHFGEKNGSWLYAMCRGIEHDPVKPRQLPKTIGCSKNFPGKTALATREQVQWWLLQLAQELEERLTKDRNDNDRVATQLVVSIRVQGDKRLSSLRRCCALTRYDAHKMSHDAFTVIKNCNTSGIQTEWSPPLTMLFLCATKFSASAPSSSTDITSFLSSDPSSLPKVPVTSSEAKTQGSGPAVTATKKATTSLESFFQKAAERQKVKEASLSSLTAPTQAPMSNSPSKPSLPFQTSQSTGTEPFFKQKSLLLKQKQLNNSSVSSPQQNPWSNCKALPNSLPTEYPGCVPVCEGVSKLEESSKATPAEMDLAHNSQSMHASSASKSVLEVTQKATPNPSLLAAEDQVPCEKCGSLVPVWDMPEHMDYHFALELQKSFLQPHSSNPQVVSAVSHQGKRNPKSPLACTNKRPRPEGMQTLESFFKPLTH", "experiment": "qHTS for Inhibitors of Polymerase Eta", "conditions": "recombinant Pol eta, fluorescent DNA replication assay; series mostly up to 114 µM; activity change, negative = inhibition: at the top concentration", "summary_of_the_method": "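Pol eta at 10 nM preincubated with compounds 15 min at room temperature; reaction started with fluorescent substrate (50 nM final) and read kinetically at 0 and 10 min.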"}
{"smiles": "NC(=O)c1ccsc1NC(=O)COC(=O)Cc1cccc2ccccc12", "Potency": "inconclusive: 25.1 µM [inhibitor, partial curve]"}
{"smiles": "O=c1c2cn[nH]c2nc(SCc2ccccc2F)n1-c1ccc(Br)cc1", "Potency": "inconclusive: 79.4 µM [inhibitor, partial curve, poor fit]"}
{"smiles": "CC(C)(C)C(=O)Nc1cccc(OC(F)(F)C(F)Cl)c1", "note": "(configuration not stated)", "activity change, negative = inhibition": "inactive: -11.5%"}
{"smiles": "Cc1cc(C)cc(C(=O)OCC(=O)NCc2ccco2)c1", "Potency": "inconclusive: 50.1 µM [inhibitor, partial curve, poor fit]"}
{"smiles": "CC(=O)OCCNc1cc(SCc2ccco2)c2nonc2c1[N+](=O)[O-]", "Potency": "inconclusive: 14.1 µM [inhibitor, full curve, poor fit]"}
{"smiles": "O=C(N/N=C/C=C/c1ccco1)c1ccccc1Cl", "activity change, negative = inhibition": "inactive: -5.4%"}
{"smiles": "O=C(c1ccc2c(=O)n3c(nc2c1)CCC3)N1CCCSC1=Nc1ccccc1", "Potency": "inconclusive: 12.6 µM [inhibitor, partial curve, poor fit]"}
{"smiles": "COc1ccc(OC)c(C2/C(=C(/O)c3cnn(-c4ccccc4)c3C)C(=O)C(=O)N2CCN(C)C)c1", "note": "(configuration not stated)", "Potency": "inconclusive: 112 µM [inhibitor, partial curve, poor fit]"}
{"smiles": "CCC(=O)c1ccc(OCC(=O)Nc2nc(-c3cccnc3)cs2)cc1", "Potency": "active: 12.6 µM"}
{"smiles": "COc1ccc(S(=O)(=O)Nc2cccnc2)cc1", "Potency": "inconclusive: 100 µM [inhibitor, partial curve, poor fit]"}
{"smiles": "Cc1cc(C)cc(NS(=O)(=O)c2ccc3[nH]cc(C(=O)NCCc4ccccc4)c(=O)c3c2)c1", "activity change, negative = inhibition": "inactive: -5.68%"}
{"smiles": "Cc1ccc([C@@H]2CC=C(C(=O)O)[C@H](c3ccc(Br)cc3)N2S(=O)(=O)c2ccc(C)cc2)cc1", "Potency": "inconclusive: 89.1 µM [inhibitor, single point]"}
{"smiles": "Cc1ccn2c(=O)nc(SCC(=O)Nc3ccc4c(c3)OCCO4)nc2c1", "Potency": "inconclusive: 12.6 µM [inhibitor, full curve]"}
{"smiles": "COc1ccc(OC)c(NC(=O)c2csc(Cl)c2OC)c1", "activity change, negative = inhibition": "inactive: -13.6%"}
{"smiles": "O=C(NCc1ccco1)c1cnn2c(C(F)(F)F)cc(-c3cccs3)nc12", "Potency": "inconclusive: 20 µM [inhibitor, partial curve]"}
{"smiles": "O=C(CSc1ncnc2scc(-c3ccccc3)c12)N1CCN(Cc2ccc3c(c2)OCO3)CC1", "Potency": "inconclusive: 12.6 µM [inhibitor, full curve]"}
{"smiles": "CCCCC[C@@H](/C=C/C1C(=O)C=C[C@H]1C/C=C\\CCCC(=O)OC)OC(C)=O", "note": "(some centres not stated)", "Potency": "inconclusive: 44.7 µM [inhibitor, partial curve, poor fit]"}
{"smiles": "Cc1cc(C)c(NC(=O)Cn2c(=O)n(Cc3ccc(C(=O)NCc4ccc5c(c4)OCO5)cc3)c(=O)c3ccccc32)c(C)c1", "Potency": "inconclusive: 89.1 µM [inhibitor, single point]"}
{"smiles": "COc1ccc2c3c1OC1CC(O)C=CC31CCN(C)C2", "note": "(configuration not stated)", "Potency": "inactive"}
{"smiles": "COc1ccc(-c2cc(=O)oc3cc(OCC(=O)NCC(O)c4ccccc4)ccc23)cc1", "note": "(configuration not stated)", "activity change, negative = inhibition": "inactive: 7.19%"}
{"smiles": "COc1cccc(-n2c(SCc3ccc(F)cc3)nc3c([nH]c4ccccc43)c2=O)c1", "Potency": "inconclusive: 89.1 µM [inhibitor, partial curve, poor fit]"}
{"smiles": "COC(=O)c1ccc(NC(=O)CN(C)S(=O)(=O)c2ccc(Br)s2)cc1", "activity change, negative = inhibition": "inactive: -7.06%"}
{"smiles": "Cc1cccc(C(=O)Nc2ccc(NC(=O)Cc3ccc(Cl)cc3)cc2)c1", "Potency": "inconclusive: 28.2 µM [inhibitor, partial curve, poor fit]"}
{"smiles": "N#C/C(=C\\c1cccnc1)C(=O)Nc1ccccc1[N+](=O)[O-]", "Potency": "active: 31.6 µM"}
{"smiles": "O=C(Nc1cccc(-c2nnc(-c3ccco3)o2)c1)c1ccccc1", "activity change, negative = inhibition": "inactive: -6.64%"}
{"smiles": "C=CCn1c(SC2CCOC2=O)nc2sc(CC)cc2c1=O", "note": "(configuration not stated)", "Potency": "inconclusive: 20 µM [inhibitor, partial curve, poor fit]"}
{"smiles": "CC(C)Cc1nn2c(=O)cc(COC(=O)c3ccc(NC(=O)C4CCCCC4)cc3)nc2s1", "activity change, negative = inhibition": "inactive: 3.97%"}
{"smiles": "COc1ccc(-c2nc3ccccc3c(=O)n2CCCN2CCOCC2)cc1", "activity change, negative = inhibition": "inactive: -2.93%"}
{"smiles": "CCN(CC(=O)Nc1ccc(NC(C)=O)cc1)C(=O)c1ccc(COc2ccc(C(C)(C)C)cc2)cc1", "Potency": "inconclusive: 89.1 µM [inhibitor, partial curve, poor fit]"}
{"smiles": "COc1ccc(C)cc1NC(=O)C(=O)NCC(c1cccnc1)N1CCN(c2ccccc2F)CC1", "note": "(configuration not stated)", "activity change, negative = inhibition": "inactive: -24.2%"}
{"smiles": "COc1ccc(N2CCN(C(=O)Cn3c(=O)c4cccn4c4cccnc43)CC2)cc1", "Potency": "inconclusive: 31.6 µM [inhibitor, full curve]"}
{"smiles": "C/C(=N\\NC(=O)c1ccccc1)c1cc2cc([N+](=O)[O-])ccc2oc1=O", "Potency": "inconclusive: 15.8 µM [inhibitor, full curve, poor fit]"}
{"smiles": "Cc1ccc(S(=O)(=O)c2cn(CC(=O)Nc3ccc(F)cc3)c3cc4c(cc3c2=O)OCO4)cc1", "activity change, negative = inhibition": "inactive: -8.58%"}
{"smiles": "CC1=NN(c2ccccc2)C(=O)/C1=C/c1c(O)n(-c2ccc(F)c(Cl)c2)[nH]c1=O", "Potency": "active: 28.2 µM"}
{"smiles": "CCCCCC(=O)N1C[C@H](n2cc(C3CC3)nn2)[C@@H](O)C[C@@H]1c1ccc(Cl)cc1", "Potency": "inconclusive: 79.4 µM [inhibitor, partial curve, poor fit]"}
{"smiles": "N#C/C(=C\\c1ccccc1O)C(=O)Nc1cccnc1", "Potency": "inconclusive: 100 µM [inhibitor, partial curve, poor fit]"}
{"smiles": "COc1cnc(-c2ccccn2)nc1Sc1ccccc1Cl", "activity change, negative = inhibition": "inactive: -14.8%"}
{"smiles": "CCc1cccc(NC(=O)CCc2c(C)nc3c(-c4ccccc4)c(C)nn3c2C)c1", "Potency": "inconclusive: 56.2 µM [inhibitor, partial curve, poor fit]"}
{"smiles": "Cc1nc2c(-c3ccc(F)cc3)c(C)nn2c(C)c1CCC(=O)NC(C)CCc1ccco1", "note": "(configuration not stated)", "Potency": "inconclusive: 56.2 µM [inhibitor, partial curve, poor fit]"}
{"smiles": "COc1ccc(NC(=O)c2cc(-c3ccccc3Cl)on2)cc1", "Potency": "inconclusive: 44.7 µM [inhibitor, partial curve, poor fit]"}
{"smiles": "CC(=O)NNC(=O)CSc1nnc(-c2ccccc2)c(-c2ccccc2)n1", "Potency": "active: 14.1 µM"}
{"smiles": "CC(=O)Oc1ccc(/C=c2\\sc3ncnn3c2=O)cc1", "Potency": "inconclusive: 20 µM [inhibitor, partial curve, poor fit]"}
